# In the supplement of paper PMC8728848:
# The other results are listed elsewhere or left out.
# Key:
# Experiment in all cases: glycan array binding signal (z-score within array); higher = stronger binding
# Details in all cases: glycan notation: IUPAC condensed, linker removed
# [1] = target: Fuc(a1-3)[Gal3S(b1-4)]GlcNAc6S
# How it was run: (§1)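 The Consortium for Functional Glycomics database supplied 3228 glycan arrays, of which those lacking an available protein sequence were dropped. The binding signal, a within-array Z-score, was averaged across arrays of the same protein sequence and across linkers. Negative scores can be read as non-binding.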
# [2] = target: Fuc(a1-3)[GalNAc(b1-4)]GlcNAc
# How it was run: as §1
# [3] = target: Fuc(a1-3)[GalNAc(b1-4)]GlcNAc6S
# How it was run: as §1
# Fuc(a1-4)GlcNAc = target: Fuc(a1-4)GlcNAc
# How it was run: as §1
# Fuc(b1-3)GlcNAc = target: Fuc(b1-3)GlcNAc
# How it was run: as §1
# Gal(a1-2)Gal = target: Gal(a1-2)Gal
# How it was run: as §1
# Gal(a1-3)Gal = target: Gal(a1-3)Gal
# How it was run: as §1
# Gal(a1-3)Gal(b1-3)GlcNAc = target: Gal(a1-3)Gal(b1-3)GlcNAc
# How it was run: as §1
# [4] = target: Gal(a1-3)Gal(b1-3)GlcNAc(b1-2)Man
# How it was run: as §1
# [5] = target: Gal(a1-3)Gal(b1-3)GlcNAc(b1-2)Man(a1-3)[Gal(a1-3)Gal(b1-3)GlcNAc(b1-2)Man(a1-6)]Man(b1-4)GlcNAc(b1-4)GlcNAc
# How it was run: as §1
# [6] = target: Gal(a1-3)Gal(b1-3)GlcNAc(b1-3)GalNAc
# How it was run: as §1
# [7] = target: Gal(a1-3)Gal(b1-3)GlcNAc(b1-6)GalNAc
# How it was run: as §1
# [8] = target: Gal(a1-3)Gal(b1-3)[Fuc(a1-4)]GlcNAc(b1-2)Man(a1-3)[Gal(a1-3)Gal(b1-3)[Fuc(a1-4)]GlcNAc(b1-2)Man(a1-6)]Man(b1-4)GlcNAc(b1-4)GlcNAc
# How it was run: as §1
# Gal(a1-3)Gal(b1-4)Glc = target: Gal(a1-3)Gal(b1-4)Glc
# How it was run: as §1
# Gal(a1-3)Gal(b1-4)GlcNAc = target: Gal(a1-3)Gal(b1-4)GlcNAc
# How it was run: as §1
# [9] = target: Gal(a1-3)Gal(b1-4)GlcNAc(b1-2)Man
# How it was run: as §1
# [10] = target: Gal(a1-3)Gal(b1-4)GlcNAc(b1-2)Man(a1-3)[Gal(a1-3)Gal(b1-4)GlcNAc(b1-2)Man(a1-6)]Man(b1-4)GlcNAc(b1-4)GlcNAc
# How it was run: as §1
# [11] = target: Gal(a1-3)Gal(b1-4)GlcNAc(b1-3)GalNAc
# How it was run: as §1
# [12] = target: Gal(a1-3)Gal(b1-4)GlcNAc(b1-6)GalNAc
# How it was run: as §1
# [13] = target: Gal(a1-3)Gal(b1-4)[Fuc(a1-3)]GlcNAc
# How it was run: as §1
# [14] = target: Gal(a1-3)Gal(b1-4)[Fuc(a1-3)]GlcNAc(b1-2)Man(a1-3)[Gal(a1-3)Gal(b1-4)[Fuc(a1-3)]GlcNAc(b1-2)Man(a1-6)]Man(b1-4)GlcNAc(b1-4)GlcNAc
# How it was run: as §1
# Gal(a1-3)GalNAc = target: Gal(a1-3)GalNAc
# How it was run: as §1
# [15] = target: Gal(a1-3)[Gal(a1-4)]Gal(b1-4)GlcNAc
# How it was run: as §1
# [16] = target: Gal(a1-4)Gal(b1-3)GlcNAc(b1-2)Man(a1-3)[Gal(a1-4)Gal(b1-3)GlcNAc(b1-2)Man(a1-6)]Man(b1-4)GlcNAc(b1-4)GlcNAc
# How it was run: as §1
# Gal(a1-4)Gal(b1-4)Glc = target: Gal(a1-4)Gal(b1-4)Glc
# How it was run: as §1
# Gal(a1-4)Gal(b1-4)GlcNAc = target: Gal(a1-4)Gal(b1-4)GlcNAc
# How it was run: as §1
# [17] = target: Gal(a1-4)Gal(b1-4)GlcNAc(b1-2)Man(a1-3)[Gal(a1-4)Gal(b1-4)GlcNAc(b1-2)Man(a1-6)]Man(b1-4)GlcNAc(b1-4)GlcNAc
# How it was run: as §1
# [18] = target: Gal(a1-4)Gal(b1-4)GlcNAc(b1-3)Gal(b1-4)Glc
# How it was run: as §1
# Gal(a1-4)GlcNAc = target: Gal(a1-4)GlcNAc
# How it was run: as §1
# Gal(a1-6)Glc = target: Gal(a1-6)Glc
# How it was run: as §1
# Gal(b1-2)Gal = target: Gal(b1-2)Gal
# How it was run: as §1
# Gal(b1-3)Gal = target: Gal(b1-3)Gal
# How it was run: as §1
# Gal(b1-3)Gal(b1-4)GlcNAc = target: Gal(b1-3)Gal(b1-4)GlcNAc
# How it was run: as §1
# Gal(b1-3)GalNAc = target: Gal(b1-3)GalNAc
# How it was run: as §1
# [19] = target: Gal(b1-3)GalNAc(a1-3)[Fuc(a1-2)]Gal(b1-4)Glc
# How it was run: as §1
# [20] = target: Gal(b1-3)GalNAc(a1-3)[Fuc(a1-2)]Gal(b1-4)GlcNAc
# How it was run: as §1
# Gal(b1-3)GalNAc(b1-3)Gal = target: Gal(b1-3)GalNAc(b1-3)Gal
# How it was run: as §1
# [21] = target: Gal(b1-3)GalNAc(b1-3)Gal(a1-4)Gal(b1-4)Glc
# How it was run: as §1
# [22] = target: Gal(b1-3)GalNAc(b1-4)Gal(b1-4)Glc
# How it was run: as §1
# [23] = target: Gal(b1-3)GalNAc(b1-4)[Neu5Ac(a2-3)]Gal(b1-4)Glc
# How it was run: as §1
# Gal(b1-3)GlcNAc = target: Gal(b1-3)GlcNAc
# How it was run: as §1
# [24] = target: Gal(b1-3)GlcNAc(a1-3)Gal(b1-4)GlcNAc
# How it was run: as §1
# [25] = target: Gal(b1-3)GlcNAc(a1-6)Gal(b1-4)GlcNAc
# How it was run: as §1
# Gal(b1-3)GlcNAc(b1-2)Man = target: Gal(b1-3)GlcNAc(b1-2)Man
# How it was run: as §1
# [26] = target: Gal(b1-3)GlcNAc(b1-2)Man(a1-3)[Gal(b1-3)GlcNAc(b1-2)Man(a1-6)]Man(b1-4)GlcNAc(b1-4)GlcNAc
# How it was run: as §1
binder,measurement,setting,value
GS13846A-bth-444-19-444 (Bacteroides thetaiotaomicron) (protein) SCENEFDVSDKADSLISVTVNTLNNQAAYNVGETAQAELWIQRGGLKDASGKVQFVVDPLLLDSLNQEDKTNYELLPENCYEMTNTEFTVDKNELCGYITYHPEKILALSAYNETKYVLPLRLISNDLAINPARNTSFLAFTILEPIVHISNAGVYNINPDLTSTMDIQIGVPFTNKWDILCNLTEDLSLIDEYNQINKVNFTLLPENAYTAPESVTLQEGVSQITASYQLKNNLVPGNYILPIKIGSITASQGGVPNNSLVIDEESNVLFCIVKEGNKINKSGWEVIECSSEHAGNEATYMIDDNESTYWHCKFKNEAGSSVPPFHFIIDMKKEITIAQIDLLNRGDGAANNIKWVEFYASNNNSEWDKIGAGDFNDEGTRATFRYYVKSTKARYLKLIIPEGYGNNCPPAAIRELTVYGLEGNN,glycan array binding signal (z-score),[1],-0.237
same,glycan array binding signal (z-score),[2],-0.275
same,glycan array binding signal (z-score),[3],0.175
same,glycan array binding signal (z-score),Fuc(a1-4)GlcNAc,-0.35
same,glycan array binding signal (z-score),Fuc(b1-3)GlcNAc,-0.384
same,glycan array binding signal (z-score),Gal(a1-2)Gal,-0.055
same,glycan array binding signal (z-score),Gal(a1-3)Gal,-0.336
same,glycan array binding signal (z-score),Gal(a1-3)Gal(b1-3)GlcNAc,-0.266
same,glycan array binding signal (z-score),[4],-0.049
same,glycan array binding signal (z-score),[5],0.196
same,glycan array binding signal (z-score),[6],-0.05
same,glycan array binding signal (z-score),[7],-0.015
same,glycan array binding signal (z-score),[8],2.08
same,glycan array binding signal (z-score),Gal(a1-3)Gal(b1-4)Glc,-0.254
same,glycan array binding signal (z-score),Gal(a1-3)Gal(b1-4)GlcNAc,-0.255
same,glycan array binding signal (z-score),[9],-0.555
same,glycan array binding signal (z-score),[10],0.098
same,glycan array binding signal (z-score),[11],0.168
same,glycan array binding signal (z-score),[12],-0.274
same,glycan array binding signal (z-score),[13],0.302
same,glycan array binding signal (z-score),[14],0.254
same,glycan array binding signal (z-score),Gal(a1-3)GalNAc,-0.222
same,glycan array binding signal (z-score),[15],2.7
same,glycan array binding signal (z-score),[16],0.267
same,glycan array binding signal (z-score),Gal(a1-4)Gal(b1-4)Glc,-0.299
same,glycan array binding signal (z-score),Gal(a1-4)Gal(b1-4)GlcNAc,-0.214
same,glycan array binding signal (z-score),[17],0.021
same,glycan array binding signal (z-score),[18],-0.018
same,glycan array binding signal (z-score),Gal(a1-4)GlcNAc,-0.308
same,glycan array binding signal (z-score),Gal(a1-6)Glc,-0.432
same,glycan array binding signal (z-score),Gal(b1-2)Gal,-0.204
same,glycan array binding signal (z-score),Gal(b1-3)Gal,-0.365
same,glycan array binding signal (z-score),Gal(b1-3)Gal(b1-4)GlcNAc,-0.159
same,glycan array binding signal (z-score),Gal(b1-3)GalNAc,-0.269
same,glycan array binding signal (z-score),[19],-0.363
same,glycan array binding signal (z-score),[20],-0.282
same,glycan array binding signal (z-score),Gal(b1-3)GalNAc(b1-3)Gal,-0.351
same,glycan array binding signal (z-score),[21],-0.249
same,glycan array binding signal (z-score),[22],0.037
same,glycan array binding signal (z-score),[23],-0.217
same,glycan array binding signal (z-score),Gal(b1-3)GlcNAc,-0.352
same,glycan array binding signal (z-score),[24],-0.246
same,glycan array binding signal (z-score),[25],-0.421
same,glycan array binding signal (z-score),Gal(b1-3)GlcNAc(b1-2)Man,-0.167
same,glycan array binding signal (z-score),[26],0.242
